Laboratory results from the supplement of paper PMC8728848.
The list shows a part of the results.

Columns and labels:
Assay in all cases: glycan array binding signal (z-score within array); higher = stronger binding
Conditions in all cases: glycan notation: IUPAC condensed, linker removed
[1] = molecular target: Fuc(a1-2)Gal6S(b1-3)GlcNAc
Procedure, shortened: (§1)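 The binding signal is a Z-score computed within each array. Data were drawn from 3228 arrays in the Consortium for Functional Glycomics database, restricted to those with a known protein sequence. Scores were averaged over arrays of the same protein sequence at different concentrations or buffers, and over linkers, and negative values can be taken as non-binding.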

[2] = molecular target: Fuc(a1-2)Gal6S(b1-3)GlcNAc6S
Procedure, shortened: as §1

Fuc(a1-2)Gal6S(b1-4)Glc = molecular target: Fuc(a1-2)Gal6S(b1-4)Glc
Procedure, shortened: as §1

[3] = molecular target: Fuc(a1-2)Gal6S(b1-4)Glc6S
Procedure, shortened: as §1

Fuc(a1-2)[Gal(a1-3)]Gal = molecular target: Fuc(a1-2)[Gal(a1-3)]Gal
Procedure, shortened: as §1

[4] = molecular target: Fuc(a1-2)[Gal(a1-3)]Gal(b1-3)GalNAc
Procedure, shortened: as §1

[5] = molecular target: Fuc(a1-2)[Gal(a1-3)]Gal(b1-3)GalNAc(b1-3)Gal(a1-4)Gal(b1-4)Glc
Procedure, shortened: as §1

[6] = molecular target: Fuc(a1-2)[Gal(a1-3)]Gal(b1-3)GlcNAc
Procedure, shortened: as §1

[7] = molecular target: Fuc(a1-2)[Gal(a1-3)]Gal(b1-3)GlcNAc(b1-2)Man(a1-3)[Fuc(a1-2)[Gal(a1-3)]Gal(b1-3)GlcNAc(b1-2)Man(a1-6)]Man(b1-4)GlcNAc(b1-4)GlcNAc
Procedure, shortened: as §1

[8] = molecular target: Fuc(a1-2)[Gal(a1-3)]Gal(b1-3)GlcNAc(b1-2)Man(a1-3)[Fuc(a1-2)[Gal(a1-3)]Gal(b1-3)GlcNAc(b1-2)Man(a1-6)]Man(b1-4)GlcNAc(b1-4)[Fuc(a1-6)]GlcNAc
Procedure, shortened: as §1

[9] = molecular target: Fuc(a1-2)[Gal(a1-3)]Gal(b1-3)GlcNAc(b1-3)GalNAc
Procedure, shortened: as §1

[10] = molecular target: Fuc(a1-2)[Gal(a1-3)]Gal(b1-3)GlcNAc(b1-6)GalNAc
Procedure, shortened: as §1

[11] = molecular target: Fuc(a1-2)[Gal(a1-3)]Gal(b1-4)Glc
Procedure, shortened: as §1

[12] = molecular target: Fuc(a1-2)[Gal(a1-3)]Gal(b1-4)GlcNAc
Procedure, shortened: as §1

[13] = molecular target: Fuc(a1-2)[Gal(a1-3)]Gal(b1-4)GlcNAc(b1-2)Man
Procedure, shortened: as §1

[14] = molecular target: Fuc(a1-2)[Gal(a1-3)]Gal(b1-4)GlcNAc(b1-2)Man(a1-3)[Fuc(a1-2)[Gal(a1-3)]Gal(b1-4)GlcNAc(b1-2)Man(a1-6)]Man(b1-4)GlcNAc(b1-4)GlcNAc
Procedure, shortened: as §1

[15] = molecular target: Fuc(a1-2)[Gal(a1-3)]Gal(b1-4)GlcNAc(b1-2)Man(a1-3)[Fuc(a1-2)[Gal(a1-3)]Gal(b1-4)GlcNAc(b1-2)Man(a1-6)]Man(b1-4)GlcNAc(b1-4)[Fuc(a1-6)]GlcNAc
Procedure, shortened: as §1

[16] = molecular target: Fuc(a1-2)[Gal(a1-3)]Gal(b1-4)GlcNAc(b1-3)GalNAc
Procedure, shortened: as §1

[17] = molecular target: Fuc(a1-2)[Gal(a1-3)]Gal(b1-4)GlcNAc(b1-3)[Fuc(a1-2)[Gal(a1-3)]Gal(b1-4)GlcNAc(b1-6)]GalNAc
Procedure, shortened: as §1

[18] = molecular target: Fuc(a1-2)[Gal(a1-3)]Gal(b1-4)GlcNAc(b1-6)GalNAc
Procedure, shortened: as §1

[19] = molecular target: Fuc(a1-2)[Gal(a1-3)]Gal(b1-4)[Fuc(a1-3)]Glc
Procedure, shortened: as §1

[20] = molecular target: Fuc(a1-2)[Gal(a1-3)]Gal(b1-4)[Fuc(a1-3)]GlcNAc
Procedure, shortened: as §1

[21] = molecular target: Fuc(a1-2)[Gal(a1-3)]Gal(b1-4)[Fuc(a1-3)]GlcNAc(b1-3)GalNAc
Procedure, shortened: as §1

[22] = molecular target: Fuc(a1-2)[Gal(a1-4)]Gal(b1-4)GlcNAc
Procedure, shortened: as §1

[23] = molecular target: Fuc(a1-2)[GalNAc(a1-3)]Gal
Procedure, shortened: as §1

[24] = molecular target: Fuc(a1-2)[GalNAc(a1-3)]Gal(b1-3)GalNAc(a1-3)[Fuc(a1-2)]Gal(b1-4)GlcNAc
Procedure, shortened: as §1

[25] = molecular target: Fuc(a1-2)[GalNAc(a1-3)]Gal(b1-3)GalNAc(b1-3)Gal(a1-4)Gal(b1-4)Glc
Procedure, shortened: as §1

[26] = molecular target: Fuc(a1-2)[GalNAc(a1-3)]Gal(b1-3)GlcNAc
Procedure, shortened: as §1

[27] = molecular target: Fuc(a1-2)[GalNAc(a1-3)]Gal(b1-3)GlcNAc(b1-2)Man(a1-3)[Fuc(a1-2)[GalNAc(a1-3)]Gal(b1-3)GlcNAc(b1-2)Man(a1-6)]Man(b1-4)GlcNAc(b1-4)GlcNAc
Procedure, shortened: as §1

[28] = molecular target: Fuc(a1-2)[GalNAc(a1-3)]Gal(b1-3)GlcNAc(b1-2)Man(a1-3)[Fuc(a1-2)[GalNAc(a1-3)]Gal(b1-3)GlcNAc(b1-2)Man(a1-6)]Man(b1-4)GlcNAc(b1-4)[Fuc(a1-6)]GlcNAc
Procedure, shortened: as §1

[29] = molecular target: Fuc(a1-2)[GalNAc(a1-3)]Gal(b1-3)GlcNAc(b1-3)GalNAc
Procedure, shortened: as §1

[30] = molecular target: Fuc(a1-2)[GalNAc(a1-3)]Gal(b1-3)GlcNAc(b1-6)GalNAc
Procedure, shortened: as §1

[31] = molecular target: Fuc(a1-2)[GalNAc(a1-3)]Gal(b1-4)Glc
Procedure, shortened: as §1

[32] = molecular target: Fuc(a1-2)[GalNAc(a1-3)]Gal(b1-4)GlcNAc
Procedure, shortened: as §1

[33] = molecular target: Fuc(a1-2)[GalNAc(a1-3)]Gal(b1-4)GlcNAc(b1-2)Man
Procedure, shortened: as §1

[34] = molecular target: Fuc(a1-2)[GalNAc(a1-3)]Gal(b1-4)GlcNAc(b1-2)Man(a1-3)[Fuc(a1-2)[GalNAc(a1-3)]Gal(b1-4)GlcNAc(b1-2)Man(a1-6)]Man(b1-4)GlcNAc(b1-4)GlcNAc
Procedure, shortened: as §1

[35] = molecular target: Fuc(a1-2)[GalNAc(a1-3)]Gal(b1-4)GlcNAc(b1-2)Man(a1-3)[Fuc(a1-2)[GalNAc(a1-3)]Gal(b1-4)GlcNAc(b1-2)Man(a1-6)]Man(b1-4)GlcNAc(b1-4)[Fuc(a1-6)]GlcNAc
Procedure, shortened: as §1

[36] = molecular target: Fuc(a1-2)[GalNAc(a1-3)]Gal(b1-4)GlcNAc(b1-3)Gal(b1-4)GlcNAc
Procedure, shortened: as §1

[37] = molecular target: Fuc(a1-2)[GalNAc(a1-3)]Gal(b1-4)GlcNAc(b1-3)Gal(b1-4)GlcNAc(b1-3)Gal(b1-4)GlcNAc
Procedure, shortened: as §1

[38] = molecular target: Fuc(a1-2)[GalNAc(a1-3)]Gal(b1-4)GlcNAc(b1-3)GalNAc
Procedure, shortened: as §1

[39] = molecular target: Fuc(a1-2)[GalNAc(a1-3)]Gal(b1-4)GlcNAc(b1-3)[Fuc(a1-2)[GalNAc(a1-3)]Gal(b1-4)GlcNAc(b1-6)]GalNAc
Procedure, shortened: as §1

[40] = molecular target: Fuc(a1-2)[GalNAc(a1-3)]Gal(b1-4)GlcNAc(b1-6)GalNAc
Procedure, shortened: as §1

[41] = molecular target: Fuc(a1-2)[GalNAc(a1-3)]Gal(b1-4)[Fuc(a1-3)]GlcNAc
Procedure, shortened: as §1

[42] = molecular target: Fuc(a1-2)[GalNAc(a1-3)]Gal(b1-4)[Fuc(a1-3)]GlcNAc(b1-3)GalNAc
Procedure, shortened: as §1

[43] = molecular target: Fuc(a1-2)[GalNAc(a1-4)]Gal(b1-4)GlcNAc
Procedure, shortened: as §1

B1: Clec2 (Mus musculus), Q9JL99 (protein)
chain: MQDEDGYITLNIKPRKQALSSAEPASSWWRVMALVLLISSMGLVVGLVALGIMSVTQQKYLLAEKENLSATLQQLAKKFCQELIRQSEIKTKSTFEHKCSPCATKWRYHGDSCYGFFRRNLTWEESKQYCTEQNATLVKTASQSTLDYIAERITSVRWIGLSRQNSKKDWMWEDSSVLRKNGINLSGNTEENMNCAYLHNGKIHPASCKERHYLICERNAGMTRVDQLL
B1 was tested, and the “glycan array binding signal (z-score)” value [1] was -0.167, the “glycan array binding signal (z-score)” value [2] was 2.16 and the “glycan array binding signal (z-score)” value (Fuc(a1-2)Gal6S(b1-4)Glc) was 0.095. The “glycan array binding signal (z-score)” value [3] was 1.11, the “glycan array binding signal (z-score)” value (Fuc(a1-2)[Gal(a1-3)]Gal) was -0.3 and the “glycan array binding signal (z-score)” value [4] was 0.353. The “glycan array binding signal (z-score)” value [5] was -0.604, the “glycan array binding signal (z-score)” value [6] was 0.367 and the “glycan array binding signal (z-score)” value [7] was -0.485. For the same binder, the “glycan array binding signal (z-score)” value [8] was -0.397, the “glycan array binding signal (z-score)” value [9] was 0.031 and the “glycan array binding signal (z-score)” value [10] was 0.298. The “glycan array binding signal (z-score)” value [11] was -0.114, the “glycan array binding signal (z-score)” value [12] was -0.69 and the “glycan array binding signal (z-score)” value [13] was -0.013. For the same binder, the “glycan array binding signal (z-score)” value [14] was -0.683, the “glycan array binding signal (z-score)” value [15] was -0.006 and the “glycan array binding signal (z-score)” value [16] was -0.063. For the same binder, the “glycan array binding signal (z-score)” value [17] was -0.306, the “glycan array binding signal (z-score)” value [18] was 0.309 and the “glycan array binding signal (z-score)” value [19] was -0.729. The “glycan array binding signal (z-score)” value [20] was -0.319, the “glycan array binding signal (z-score)” value [21] was -0.212 and the “glycan array binding signal (z-score)” value [22] was 0.332. For the same binder, the “glycan array binding signal (z-score)” value [23] was -0.098, the “glycan array binding signal (z-score)” value [24] was -0.388 and the “glycan array binding signal (z-score)” value [25] was 0.021. For the same binder, the “glycan array binding signal (z-score)” value [26] was -0.625, the “glycan array binding signal (z-score)” value [27] was -0.66 and the “glycan array binding signal (z-score)” value [28] was -0.887. For the same binder, the “glycan array binding signal (z-score)” value [29] was 0.099, the “glycan array binding signal (z-score)” value [30] was -0.229 and the “glycan array binding signal (z-score)” value [31] was -0.085. The “glycan array binding signal (z-score)” value [32] was -0.676, the “glycan array binding signal (z-score)” value [33] was -0.415 and the “glycan array binding signal (z-score)” value [34] was -0.197. The “glycan array binding signal (z-score)” value [35] was 0.116, the “glycan array binding signal (z-score)” value [36] was -0.909 and the “glycan array binding signal (z-score)” value [37] was -0.74. The “glycan array binding signal (z-score)” value [38] was -0.594, the “glycan array binding signal (z-score)” value [39] was -0.335 and the “glycan array binding signal (z-score)” value [40] was -0.476. For the same binder, the “glycan array binding signal (z-score)” value [41] was 0.176, the “glycan array binding signal (z-score)” value [42] was 0.27 and the “glycan array binding signal (z-score)” value [43] was -0.573.
